Laboratory results published in PubChem BioAssay AID652104 (National Center for Advancing Translational Sciences (NCATS), 2013).
In all, about 410,000 compounds went through this assay and about 7,200 (1.8%) were called active. This list was built around the results that the source calls inconclusive (neither active nor inactive); the mix of calls is not that of the screen. Calls come from the whole dose curve; as a rule, active = well fitted activation curve with a large enough effect; inconclusive = small, poorly fitted or top-dose-only effect, or another doubt; inactive = no such curve, though single readings can be large or run the other way. No potency is given beside an inconclusive call; the fits are too rough.
Potency is the fitted concentration of half-maximal effect; tags give direction and shape of the fitted curve.

Test: qHTS of TDP-43 Inhibitors; note: nearly all actives have a fitted effect of over 50% in size; for growth rescue (activation): % of control where 0% means no effect
Settings: TDP-43 expressing yeast growth rescue, BacTiter-Glo, 24 h; growth rescue (activation): at 46.1 µM (top of the series) unless noted
Outline: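 Readout is BacTiter-Glo luminescence of cell growth, so inhibitors register as activators. TDP-43-expressing yeast at OD600=0.02 in galactose medium, after raffinose pregrowth to mid-log, were incubated with compound for 24 hr at 30 deg C.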
For `Cc1ccc(-c2nn(-c3ccccc3)c3c2cnc2ccccc23)cc1C`, the Potency was inconclusive [activator, full curve, poor fit].
In the case of `CSc1ccccc1C(=O)NCCOc1ccccc1C`, the Potency is reported as inconclusive [activator, full curve].
In the case of `O=C(c1cccc(Br)c1)N1CCN(S(=O)(=O)N2CCCCCC2)CC1`, the Potency is reported as inconclusive [activator, partial curve].
With `CCCCN=C1C([N+](=O)[O-])=CC=C2C1=NC1(CCCCC1)N2O` the Potency was inconclusive [activator, full curve, poor fit].
For `Cc1cccc(C(=O)N2CCc3cc(CNS(=O)(=O)c4ccc(F)c(Cl)c4)ccc32)c1`, the “growth rescue (activation)” value was inactive: 2.12%.
In the case of `O=C(N/N=C\c1cccs1)c1ccccc1-n1cccc1`, the Potency is reported as inconclusive [activator, single point].
For `Cc1ccc(S(=O)(=O)N2CCCCC2)cc1NCC(=O)Nc1ccc(Br)cc1F`, the “growth rescue (activation)” value was inactive: 6.2%.
With `CCOC(=O)CSc1cc(-c2ccccc2)nc2ncnn12` the Potency was inconclusive [activator, single point].
With `CCCc1nc2cc(C)c(Br)c(C)n2c1Cc1ccc(OC)cc1C` the Potency was inconclusive [activator, partial curve].
With `O=C(Nc1cccc(NC(=O)c2ccccc2)n1)c1ccccc1` the Potency was active: 11.2 µM.
In the case of `COc1ccc(/C(O)=C/Sc2nnc(Cc3ccccc3)o2)cc1`, the Potency is reported as inconclusive [activator, single point].
In the case of `COc1ccc(NC(=O)c2nc[nH]c2C(=O)N[C@H](C)c2ccccc2)cc1`, the Potency is reported as inconclusive [activator, single point].
In the case of `Cc1ccccc1NC(=O)c1c(-c2ccccc2)noc1C`, the “growth rescue (activation)” value is reported as inactive: 22.5%.
For `O=C(Nc1ccccc1)N1CCn2c1nc1ccccc12`, the Potency was inconclusive [activator, single point].
With `O=C(Nc1ccccc1)N(Cc1cccc(Cl)c1)c1ccccn1` the Potency was inconclusive [activator, single point].
In the case of `Cc1cc(N)n2ncc(-c3ccccc3)c2n1`, the “growth rescue (activation)” value is reported as inactive: 2.99%.
With `O=C(COc1ccc2ccccc2c1)N1CCCC1` the Potency was inconclusive [activator, single point].
For `CCN1C(=O)N[C@@H](c2ccc(Br)cc2)C(C(C)=O)=C1C`, the Potency was inconclusive [activator, single point].
For `CC(=O)N1N=C(c2cccs2)CC1c1ccc(Br)cc1` (stereo unspecified), the Potency was active: 25.1 µM.
In the case of `CCCNC(=O)c1cc(C2CCCN(C(=O)c3ccc(OC)cc3)C2)on1` (stereo unspecified), the Potency is reported as inconclusive [activator, full curve].
With `COc1ccc(NS(=O)(=O)c2ccc3[nH]c4c(c3c2)CCCCC4)cc1` the “growth rescue (activation)” value was inactive: 0.361%.
With `CC1(C(=O)NS(=O)(=O)c2ccc(Cl)cc2)CCN1C(=O)c1ccccc1CCc1ccccc1` (stereo unspecified) the Potency was inconclusive [activator, single point].
For `COc1ccc(-c2cnc3c(NC(C)=O)cc(-c4ccccc4OC)cn23)cc1OC`, the Potency was inconclusive [activator, partial curve].
For `Cc1ccc(C)c(NC(=O)C2CCN(c3cc(C)nc4c(-c5ccc(Cl)cc5)c(C)nn34)CC2)c1`, the “growth rescue (activation)” value was inactive: 19.7%.
For `C#CCOc1ccccc1/C=C1/C(=O)ON=C1C`, the growth rescue (activation) was inconclusive: 77.5% [activator].
With `Fc1ccc(CNC(=S)NCc2ccccc2)cc1` the Potency was inconclusive [activator, partial curve].
In the case of `COCCN(Cc1ccccc1)C(=S)Nc1ccc(Cl)cc1`, the Potency is reported as inconclusive [activator, single point].
In the case of `CCc1sc(C(=O)NCc2ccco2)cc1C`, the “growth rescue (activation)” value is reported as inactive: 23.9%.
For `COc1ccccc1N1CCN(C(=O)c2cc(=O)c3cc(C)ccc3o2)CC1`, the Potency was inconclusive [activator, partial curve].
In the case of `O=C(c1ccc2ncsc2c1)N1CCN(c2cccc(C(F)(F)F)c2)CC1`, the “growth rescue (activation)” value is reported as inactive: 0%.
In the case of `COc1cccc(N2CCN(S(=O)(=O)c3cc4c(cc3C)N(C)CCO4)CC2)c1`, the Potency is reported as inconclusive [activator, partial curve].
In the case of `O=C(NNc1cccc(Cl)n1)c1ccc(Cl)cc1Cl`, the Potency is reported as inconclusive [activator, full curve].
For `O=C(NC(=S)N1CCc2ccccc21)c1ccccc1Br`, the Potency was inconclusive [activator, single point].
With `COc1cccc(NC(=O)Cn2c(=O)n(CCCCC(=O)NCc3ccccc3Cl)c(=O)c3ccccc32)c1` the “growth rescue (activation)” value was inactive: 8.8%.
For `CCOC(=O)C(O)(C1C(=O)CC(C)(C)CC1=O)C(F)(F)F` (stereo unspecified), the Potency was inconclusive [activator, partial curve].
In the case of `COc1cc(NC(=S)Nc2ncccc2C)cc(OC)c1OC`, the Potency is reported as inconclusive [activator, full curve].
With `CCOc1cc(C2NN=C(c3ccccc3)S2)ccc1OCc1ccccc1Cl` (stereo unspecified) the Potency was active: 10 µM.
For `CC(C)CC(=O)N/C(N)=N/c1nc2ccccc2s1`, the Potency was active: 15.8 µM.
With `COc1cc(NS(=O)(=O)c2cc3c(cc2C)NC(=O)CO3)cc(OC)c1` the “growth rescue (activation)” value was inactive: 20.4%.
In the case of `CC(C)c1ccc(NC(=O)Cn2cc(S(=O)(=O)Cc3ccccc3Cl)c3ccccc32)cc1`, the “growth rescue (activation)” value is reported as inactive: 6.74%.
In the case of `NC(=O)NC[C@@H]1CC[C@@H](Cc2ccc(-c3ccccc3)cc2)O1`, the “growth rescue (activation)” value is reported as inactive: 18.1%.
With `C[C@]12c3[nH]c4ccc(Cl)cc4c3CCN1C(=O)[C@@H](CC(=O)NCCCn1ccnc1)C[C@@H]2C(=O)N1CCCCC1` the Potency was inconclusive [activator, single point].
In the case of `COc1ccccc1CC(=O)Nc1ccc2nc(Nc3cccc(Cl)c3)cc(C)c2c1`, the Potency is reported as inconclusive [activator, single point].
With `Cc1nn(-c2cccc(C(F)(F)F)c2)c(Cl)c1/C=N/Nc1cccc(C(=O)O)c1` the Potency was inconclusive [activator, single point].
In the case of `COc1ccc(/C=N/N(Cc2ccccc2)c2ccccc2)cc1O`, the Potency is reported as inconclusive [activator, single point].
In the case of `NC(=O)c1cc([N+](=O)[O-])ccc1NCCc1ccccc1`, the Potency is reported as inconclusive [activator, partial curve].
With `CC1CCN(c2nc(-c3ccccc3O)nc3ccccc23)CC1` the Potency was inconclusive [activator, single point].
For `Cc1nc2ccc([N+](=O)[O-])cc2c(=O)n1Cc1ccccc1Br`, the Potency was inconclusive [activator, single point].
In the case of `Cc1ccc(SCc2[nH]nc3c2C(c2cccnc2)C(C#N)=C(N)O3)cc1` (stereo unspecified), the “growth rescue (activation)” value is reported as inactive: -19.7%.
In the case of `O=C(Cc1cnn(-c2ccccc2)c1)c1ccc(O)c(O)c1O`, the Potency is reported as active: 35.5 µM.
For `Cc1ccc(S(=O)(=O)N2[C@@H](c3cccc(Cl)c3)C(C(=O)O)=CC[C@H]2c2cccs2)cc1`, the Potency was inconclusive [activator, single point].
With `Cc1cc(F)ccc1NCC(=O)Nc1ccccc1Br` the Potency was inconclusive [activator, partial curve].
With `COC(=O)c1sccc1NN1C(=O)c2ccccc2C1=O` the Potency was inconclusive [activator, partial curve].
With `Oc1ccc(NCc2ccc(OCc3ccccc3)cc2)cc1` the Potency was active: 15.8 µM.
With `O=S(=O)(NCCCc1ccccc1)c1ccccc1` the Potency was inconclusive [activator, partial curve, poor fit].
For `O=C(c1cc(-c2ccc(Cl)cc2)on1)N1CCN(c2ccc(F)cc2)CC1`, the “growth rescue (activation)” value was inactive: -14.1%.
With `COc1ccc(C(=O)/C=C/c2cn(CC(O)CN3CCOCC3)c3ccccc23)cc1` (stereo unspecified) the Potency was inconclusive [activator, partial curve].
In the case of `COc1ccc(-c2csc(C(O)c3ccc(F)cc3)n2)cc1` (stereo unspecified), the Potency is reported as active: 22.4 µM.
In the case of `Cc1cccc(C(=Cc2ccc([N+](=O)[O-])cc2)C(=O)O)c1`, the Potency is reported as inconclusive [activator, partial curve].
For `CCCCCCCCNC(=O)/C(C#N)=C/c1ccc2c(c1)OCCO2`, the “growth rescue (activation)” value was inactive: 6.34%.
For `COc1ccc2c(c1)c1c(c(=O)n(Cc3ccccc3)c(=O)n1CC(=O)NCc1ccccc1)n2C`, the “growth rescue (activation)” value was inactive: 10.5%.
In the case of `Cc1ccc(-c2nn(-c3ccccc3)cc2/C=C/C(=O)O)o1`, the Potency is reported as inconclusive [activator, single point].
For `CCOC(=O)c1c(NC(C)=O)c2c3c(sc2n1Cc1nc(-c2ccccc2Cl)oc1C)CCCC3`, the “growth rescue (activation)” value was inactive: 15.2%.
With `Cc1nn(-c2ccccc2)c2sc(C(=O)OC3CCOC3=O)cc12` (stereo unspecified) the Potency was inconclusive [activator, single point].
In the case of `COc1ccc(Cn2c(=O)c3ccccc3n3c(-c4cccc(OC)c4OC)nnc23)cc1`, the Potency is reported as inconclusive [activator, single point].
With `Cc1ccc(SC2=C(N(C)C)C(=O)c3ccccc3C2=O)cc1` the Potency was inconclusive [activator, single point].
In the case of `Cc1nnc2c(N3CCN(c4ccccc4F)CC3)nc3ccc(C(=O)c4ccccc4)cc3n12`, the “growth rescue (activation)” value is reported as inactive: 7.82%.
With `Cc1ccc(NC(=O)CCc2ccccc2)cc1C` the Potency was inconclusive [activator, partial curve, poor fit].
With `CCOC(=O)C(=CNc1ccc(OC)cc1[N+](=O)[O-])C(=O)OCC` the Potency was inconclusive [activator, partial curve].
In the case of `Cc1cccc(C(=O)NC2=NC(c3ccc(Cl)cc3)CC(=O)N2)c1` (stereo unspecified), the Potency is reported as inconclusive [activator, single point].
For `CCc1nc(C)cn1S(=O)(=O)c1ccc(Cl)c(Cl)c1OC`, the Potency was inconclusive [activator, single point].
